The whole screen tested about 200,000 compounds, of which about 860 (0.43%) were called active. Inconclusive results, whose numbers are uncertain, are shown with a selection of clear calls. Calls follow the shape of the dose curve; as a rule, active = well fitted inhibition curve with a large enough effect; inconclusive = small, poorly fitted or top-dose-only effect; inactive = flat fitted curve, though single readings scatter. Potencies beside an inconclusive call are fits to weak or partial responses and may not hold up.
target: Cruzipain (Trypanosoma cruzi) (UniProt P25779); test: qHTS Assay for Promiscuous and Specific Inhibitors of Cruzain (with detergent); settings: purified cruzain, Z-FR-AMC fluorescence, 0.01% Triton; also: nearly all actives have a fitted effect of over 40% in size;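 as to max response, negative = inhibition: plate controls were neutral wells for no effect and buffer without enzyme for full effect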
Sequence of UniProt P25779 (P25779 whole entry, looked up): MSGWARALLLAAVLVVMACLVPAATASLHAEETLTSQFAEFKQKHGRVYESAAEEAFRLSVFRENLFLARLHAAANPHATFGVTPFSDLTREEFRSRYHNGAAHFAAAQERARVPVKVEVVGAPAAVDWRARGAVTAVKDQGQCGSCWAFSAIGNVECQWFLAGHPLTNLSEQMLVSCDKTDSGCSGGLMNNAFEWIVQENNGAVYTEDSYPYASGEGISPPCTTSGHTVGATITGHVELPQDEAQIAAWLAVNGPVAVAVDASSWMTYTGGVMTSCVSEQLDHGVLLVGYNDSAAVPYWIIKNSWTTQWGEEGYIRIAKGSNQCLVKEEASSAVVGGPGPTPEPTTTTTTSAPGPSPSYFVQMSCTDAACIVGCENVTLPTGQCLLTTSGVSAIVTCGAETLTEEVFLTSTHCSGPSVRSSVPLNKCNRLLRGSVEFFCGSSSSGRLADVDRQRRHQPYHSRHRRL
Method in brief: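 Z-FR-AMC hydrolysis (2 uM substrate) by cruzain (1.5 nM) monitored kinetically at ex 360/em 450 nm after 15 min room-temperature compound exposure; 0.01% Triton X-100, pH 5.5, 5 mM DTT.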
Potency is read from the fitted curve at half-maximal effect; tags tell the direction and shape of the fitted curve.

Compound | Potency | max response, negative = inhibition
C=CCNC(=O)c1ccc(Cn2c(=S)[nH]c3cc4c(cc3c2=O)OCO4)cc1 | inconclusive: 39.8 µM [inhibitor, single point] | –
N#CCCN1CCN(C(=S)c2ccc(-c3ccc(Cl)cc3)o2)CC1 | inconclusive: 35.5 µM [inhibitor, single point] | –
O=S(=O)(c1ccc(Cl)cc1Cl)n1ccnc1 | – | inactive: 1.32%
CCCCC1(C2CCCC2)Cc2cc(OCCCC(=O)O)c(Cl)c(Cl)c2C1=O (centres undefined) | inconclusive: 28.2 µM [inhibitor, single point] | –
O=C(c1ccc(COc2ccc(F)cc2)o1)n1cc(Br)cn1 | active: 14.1 µM | –
O=C(Nc1nccs1)C1CCCN1S(=O)(=O)c1ccc(Cl)cc1 (centres undefined) | – | inactive: 2.67%
O=C(CCc1ccccc1)NNC(=O)c1ccc(NC(=O)c2ccccc2)cc1 | inconclusive: 31.6 µM [inhibitor, single point] | –
COc1nc(N/N=C/c2ccc(-c3cccc([N+](=O)[O-])c3)o2)nc(N2CCOCC2)n1 | inconclusive: 22.4 µM [inhibitor, single point] | –
c1ccc2[nH]c(CSc3nc4ccccc4s3)nc2c1 | inconclusive: 12.6 µM [inhibitor, partial curve] | –
CCc1cccc(CC)c1NC(=O)CCS(=O)(=O)c1ccc2c(c1)CCN2C(C)=O | – | inactive: -3.91%
O=c1oc2ccccc2cc1-c1nc2ccccc2o1 | inconclusive: 31.6 µM [inhibitor, single point] | –
N=C1/C(=C/c2cccs2)C(=O)N=C2SN=C(SCc3ccccc3)N12 | inconclusive: 25.1 µM [inhibitor, single point] | –
CCCn1c2ccc(F)cc2c2nnc(SCCN(CC)CC)nc21 | active: 4.47 µM | –
O=C1CN(C(=O)CSc2nnc(-c3ccccc3)n2Cc2ccc3c(c2)OCO3)c2ccccc2N1 | active: 28.2 µM | –
Cc1c(Cl)cccc1N/C(SCC(=O)N1CCCCCC1)=C(/C#N)c1nc2ccccc2s1 | – | inactive: -5.46%
COc1cc(C(CC(=O)NCc2ccccc2Cl)N2Cc3ccccc3C2=O)cc(OC)c1OC (centres undefined) | inconclusive: 28.2 µM [inhibitor, single point] | –
Cc1ccc(O)c(C=Nc2ccc3[nH]ncc3c2)c1 | inconclusive: 28.2 µM [inhibitor, single point] | –
CCCCS/C(N)=N/N=C/c1cc(C)ccc1O | inconclusive: 20 µM [inhibitor, single point] | –
CCCCC(=O)N1CCc2cc(OC)c(OC)cc2C1COc1ccc(C(=O)OCC)cc1 (centres undefined) | – | inactive: 0.144%
CCCCCn1c(-c2ccco2)nc2nc3ccccc3nc21 | inconclusive: 39.8 µM [inhibitor, single point] | –
Nc1nnc(SCC(=O)NCCOc2ccccc2)s1 | active: 28.2 µM | –
NC(=S)N/N=C/c1coc2c(ccc3ccccc32)c1=O | inconclusive: 12.6 µM [inhibitor, partial curve] | –

Compound | Potency | max response, negative = inhibition
CC(C)Oc1cccc(C(=O)Nc2ccc(Br)cc2F)c1 | – | inactive: -6.43%
C=CCOC(=O)c1cc(-c2ccc(/C=C3\C(=O)NC(=O)C(C#N)=C3C)o2)ccc1Cl | inconclusive: 22.4 µM [inhibitor, single point] | –
O=C(c1nc2nc(-c3cccs3)cc(C(F)(F)F)n2n1)N1CCN(Cc2ccccc2)CC1 | inconclusive: 31.6 µM [inhibitor, single point] | –
CC(C)OCCCn1c(=NC(=O)c2ccncc2)c(C#N)cc2c(=O)n3ccccc3nc21 | inconclusive: 28.2 µM [inhibitor, single point] | –
COc1ccc(-c2cn3nc(N4CCCC(C(=O)NCc5ccc(Cl)cc5)C4)sc3n2)cc1 (centres undefined) | active: 14.1 µM | –
Cc1ccc(CSc2ncc(Cl)c(C(=O)Nc3nnc(C)s3)n2)cc1 | – | inactive: -1.88%
CC(C)Cc1nnc(NC(=O)CSc2nc(=O)cc(N)n2-c2ccccc2)s1 | inconclusive: 39.8 µM [inhibitor, single point] | –
CCOC(=O)c1cc2c(=O)n3ccccc3nc2n(Cc2ccccc2)c1=N | inconclusive: 28.2 µM [inhibitor, single point] | –
Cc1ccc(CNS(=O)(=O)c2c(C)nc3sc(C)cn3c2=O)cc1 | – | inactive: -7.72%
O=C(c1ccco1)N1CCN(c2ncnc3c2[nH]c2ccc(Cl)cc23)CC1 | active: 14.1 µM | –
COc1cc(/C=C2\SC(=Nc3ccccc3)N(Cc3ccco3)C2=O)ccc1OC(C)C(=O)O (centres undefined) | inconclusive: 22.4 µM [inhibitor, single point] | –
N#Cc1cc2c([nH]c1=S)CCCC2 | inconclusive: 39.8 µM [inhibitor, single point] | –
Cc1ccc(S(=O)(=O)NC(=O)c2ccc(-c3ccc(-c4ccccc4)cc3)o2)c(C)c1 | inconclusive: 31.6 µM [inhibitor, single point] | –
CCN1CCN(CCCNC(=O)c2cc3cc4ccc(OC)cc4nc3o2)CC1 | inconclusive: 22.4 µM [inhibitor, single point] | –
CCN(CC)c1ccc(Nc2nc(N3CCOCC3)c3ccccc3n2)cc1 | inconclusive: 35.5 µM [inhibitor, single point] | –
CCc1ccccc1NC(=O)CSc1nnc([C@@H](N)Cc2ccccc2)o1 | active: 10 µM | –
Cn1cc(-c2nc3cnc(N4CCNCC4)nc3n(Cc3ccc(F)cc3)c2=O)c2ccccc21 | inconclusive: 39.8 µM [inhibitor, single point] | –
Cn1c(N)c(C(=O)COC(=O)c2cc(-c3ccco3)nc3ccccc23)c(=O)n(C)c1=O | inconclusive: 22.4 µM [inhibitor, single point] | –
S=C1NCCc2ccc(Cl)cc2C1c1ccccc1Cl (centres undefined) | inconclusive: 2.24 µM [inhibitor, partial curve] | –
Cn1c(C(=O)NCCCN2CCCCCC2)cc2c(=O)n(C)c3ccccc3c21 | inconclusive: 35.5 µM [inhibitor, single point] | –
CN(C)CCCNS(=O)(=O)c1ccc(N2CCC(c3ccc(Cl)cc3)=N2)cc1 | active: 31.6 µM | –
CC(=O)NS(=O)(=O)c1ccc(NC(=O)c2ccc3c(c2)C(=O)N(CCC(C)C)C3=O)cc1 | inconclusive: 35.5 µM [inhibitor, single point] | –
